In publication PMC10112805:
Changes are numbered by the printed parent chain. These are yes or no findings as the source states them, for the method shown. In cells and extracts the contact can be indirect. Some entries that bind do so weakly or less than the wild type. For some of these results: Sequences can lack the tags named with a protein.

By UniProt entry, the sequences of proteins in these tests, tags left out.
UniProt Q86WV6: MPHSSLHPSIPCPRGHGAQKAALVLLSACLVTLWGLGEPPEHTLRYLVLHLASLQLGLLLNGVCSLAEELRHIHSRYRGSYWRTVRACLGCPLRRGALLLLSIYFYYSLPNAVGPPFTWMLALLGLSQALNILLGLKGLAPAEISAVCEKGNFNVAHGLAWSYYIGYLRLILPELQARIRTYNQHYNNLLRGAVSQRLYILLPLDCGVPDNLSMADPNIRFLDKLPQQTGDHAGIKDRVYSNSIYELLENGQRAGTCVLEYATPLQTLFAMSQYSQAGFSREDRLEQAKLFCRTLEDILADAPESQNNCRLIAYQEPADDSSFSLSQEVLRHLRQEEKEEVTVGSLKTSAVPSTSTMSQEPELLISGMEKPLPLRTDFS

Experiments:
[1] = target: STING-HA (stimulator-of-interferon gene with an HA tag) (UniProt Q86WV6); assay: co-IP; HEK 293T cells co-transfected with the tagged plasmids; lysed in IP lysis buffer (50 mM Tris-HCl pH 7.4, 50 mM EDTA, 150 mM NaCl, 1% NP-40); immunoprecipitation with anti-MYC, anti-GFP or anti-HA and Protein A/G PLUS-Agarose overnight at 4 °C; five washes; immunoblot
[2] = target: STING-MYC (stimulator-of-interferon gene with a MYC tag) (UniProt Q86WV6); assay: as above
[3] = target: T1, STING, endogenous in mouse primary peritoneal macrophages (mouse (endogenous in primary peritoneal macrophages)) (UniProt Q3TBT3); assay: co-IP; endogenous proteins in mouse primary peritoneal macrophages stimulated with cGAMP; immunoprecipitation with a STING-specific antibody; IP lysis buffer (50 mM Tris-HCl pH 7.4, 50 mM EDTA, 150 mM NaCl, 1% NP-40); immunoblot
T1 sequence: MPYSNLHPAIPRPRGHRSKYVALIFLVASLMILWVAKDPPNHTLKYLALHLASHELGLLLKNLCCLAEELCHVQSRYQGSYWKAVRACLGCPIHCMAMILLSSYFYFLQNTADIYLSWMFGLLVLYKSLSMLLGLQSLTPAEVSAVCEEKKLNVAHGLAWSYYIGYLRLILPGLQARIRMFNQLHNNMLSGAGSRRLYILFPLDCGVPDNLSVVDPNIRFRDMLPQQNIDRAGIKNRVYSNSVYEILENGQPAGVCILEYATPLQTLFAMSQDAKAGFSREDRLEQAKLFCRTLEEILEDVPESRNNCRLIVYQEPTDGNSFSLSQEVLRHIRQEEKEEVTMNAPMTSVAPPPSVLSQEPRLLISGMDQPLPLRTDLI

B1: SELENOK-GFP C43 (C-terminal half of SELENOK, 43-94) (domain or fragment, UniProt Q9Y6D0 43-94)
chain: QQDVKKRRSYGNSSDSRYDDGRGPPGNPPRRMGRINHLRGPSPPPMAGGUGR
B1 was tested, and the binding [1] was “no binding”.

B2: SELENOK-GFP (selenoprotein K with a GFP tag) (protein, UniProt Q9Y6D0 1-94)
chain: MVYISNGQVLDSRSQSPWRLSLITDFFWGIAEFVVLFFKTLLQQDVKKRRSYGNSSDSRYDDGRGPPGNPPRRMGRINHLRGPSPPPMAGGUGR
B2 was tested, and the binding [2] was “binds”.

B3: SELENOK, endogenous in mouse primary peritoneal macrophages (protein, UniProt Q9JLJ1 1-94)
chain: B2 chain with S14N, L20V, L22F, I23L, L36F, S51G, N54S, N78S
With B3 the binding [3] was “binds”.

With MVYISNGQVLDSRSQSPWRLSLITDFFWGIAEFVVLFFKTLL (domain or fragment, UniProt Q9Y6D0 1-42) [SELENOK-GFP N42 (N-terminal half of SELENOK, 1-42)] the binding [1] was “binds”.
